Reference: US20240132615A1 (ICHNOS SCIENCES, published 2024)

T1: human BCMA on cells (NCI-H929, NCI-H929 CD38 KO, MOLP-8) (human, UniProt Q02223 1-184)
T1 construct: whole, on cells; endogenous BCMA of myeloma cell lines
T1 sequence (looked up): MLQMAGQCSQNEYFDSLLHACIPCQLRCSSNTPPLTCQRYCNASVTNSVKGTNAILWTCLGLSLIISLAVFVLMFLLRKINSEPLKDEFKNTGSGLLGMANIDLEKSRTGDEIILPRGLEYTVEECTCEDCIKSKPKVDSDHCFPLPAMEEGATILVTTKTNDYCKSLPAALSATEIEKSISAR


Experiments:
[1] = target: T2, human CD38 on multiple myeloma cells (human, UniProt P28907 1-300); assay: flow cytometry on MOLP-8 cells; one-site binding fit
T2 construct: whole, on cells; Here the protein is the cell lines' own

[2] = target: T2, human CD38 on multiple myeloma cells; assay: flow cytometry on KMS-12-BM cells; one-site binding fit
[3] = target: T2, human CD38 on multiple myeloma cells; assay: flow cytometry on NCI-H929 WT cells; one-site binding fit
[4] = target: T2, human CD38 on multiple myeloma cells; assay: flow cytometry on NCI-H929 BCMA KO cells (BCMA-negative, CD38-positive); one-site binding fit
[5] = target: T1, human BCMA on cells (NCI-H929, NCI-H929 …); assay: flow cytometry, NCI-H929 CD38 KO cells (BCMA present, CD38 absent)

Row | Kd [1] [nM] | Kd [2] [nM] | Kd [3] [nM] | Kd [4] [nM] | binding result [5] | Binder
1 | 32.1 | 45.6 | 118 | 215 |  | CD3/BCMA/CD38-149 (bispecific antibody, human IgG1, kappa, L234A L235A, Light chain copies of 3 is inferred from three Fabs sharing the common light chain; also called C1-D6/G6DU/B3-C11; CD3/DU/CD38) heavy 1: QVQLVQSGAEVKKPGSSVKVSCKASGGDFTLYSISWVRQAPGQGLEWMGRIIPTGANANYAQKFQGRVTITADESTSTAYMELSSLRSEDTAVYYCARSTPTYGSGWFDIWGQGTLVTVSSASTKGPSVFPLAPSSKSTSGGTAALGCLVKDYFPEPVTVSWNSGALTSGVHTFPAVLQSSGLYSLSSVVTVPSSSLGTQTYICNVNHKPSNTKVDKKVEPKSCDKTHTCPPCPAPEAAGGPSVFLFPPKPKDTLMISRTPEVTCVVVDVSHEDPEVKFNWYVDGVEVHNAKTKPREEQYNSTYRVVSVLTVLHQDWLNGKEYKCKVSNKALAAPIEKTISKAKGQPREPAVYTLPPSREEMTKNQVKLVCLVTGFYPSDIAVEWESSGQPENNYYTTPPMLDSDGSFSLVSWLNVDKSRWQQGNIFSCSVMHEALHNRFTQKSLSLSPG heavy 2: QVQLVQSGAEVKKPGSSVKVSCKASGGKFSRYAISWVRQAPGQGLEWMGGITALGGYPNYAQKFQGRVTITADESTSTAYMELSSLRSEDTAVYYCARYGYSLYMDIWGQGTLVTVSSASTKGPSVFPLAPSSKSTSGGTAALGCLVKDYFPEPVTVSWNSGALTSGVHTFPAVLQSSGLYSLSSVVTVPSSSLGTQTYICNVNHKPSNTKVDKKVEPKSCGGGGSGGGGSGGGGSQVQLVQSGAEVKKPGSSVKVSCKASGVDFTKYAIHWVRQAPGQGLEWMGGIVPAEGDANYAQKFQGRVTITADESTSTAYMELSSLRSEDTAVYYCARDVLSAGDGYYLYDLMDVWGQGTLVTVSSASTKGPSVFPLAPSSKSTSGGTAALGCLVKDYFPEPVTVSWNSGALTSGVHTFPAVLQSSGLYSLSSVVTVPSSSLGTQTYICNVNHKPSNTKVDKKVEPKSCDKTHTCPPCPAPEAAGGPSVFLFPPKPKDTLMISRTPEVTCVVVDVSHEDPEVKFNWYVDGVEVHNAKTKPREEQYNSTYRVVSVLTVLHQDWLNGKEYKCKVSNKALAAPIEKTISKAKGQPREPEVATFPPSRDELTKNQVTLVCLVTGFYPSDIAVEWESNGQPENNYKTDPPLLESQGSFALSSRLRVDKSRWQQGNVFSCSVMHEALHNHYTQKSLSLSPG light: EIVMTQSPATLSVSPGERATLSCRASQSVSSNLAWYQQKPGQAPRLLIYGASTRATGIPARFSGSGSGTEFTLTISSLQSEDFAVYYCQQYNNWPWTFGQGTKVEIKRTVAAPSVFIFPPSDEQLKSGTASVVCLLNNFYPREAKVQWKVDNALQSGNSQESVTEQDSKDSTYSLSSTLTLSKADYEKHKVYACEVTHQGLSSPVTKSFNRGEC
2 |  |  |  |  | no binding | CD3/BCMA/CD38-149 (other, control in TREAT format; also called C1-D6/G6DU/B3-C11; CD3/DU/CD38) heavy 1: QVQLVQSGAEVKKPGSSVKVSCKASGGDFTLYSISWVRQAPGQGLEWMGRIIPTGANANYAQKFQGRVTITADESTSTAYMELSSLRSEDTAVYYCARSTPTYGSGWFDIWGQGTLVTVSSASTKGPSVFPLAPSSKSTSGGTAALGCLVKDYFPEPVTVSWNSGALTSGVHTFPAVLQSSGLYSLSSVVTVPSSSLGTQTYICNVNHKPSNTKVDKKVEPKSCDKTHTCPPCPAPEAAGGPSVFLFPPKPKDTLMISRTPEVTCVVVDVSHEDPEVKFNWYVDGVEVHNAKTKPREEQYNSTYRVVSVLTVLHQDWLNGKEYKCKVSNKALAAPIEKTISKAKGQPREPAVYTLPPSREEMTKNQVKLVCLVTGFYPSDIAVEWESSGQPENNYYTTPPMLDSDGSFSLVSWLNVDKSRWQQGNIFSCSVMHEALHNRFTQKSLSLSPG heavy 2: QVQLVQSGAEVKKPGSSVKVSCKASGGKFSRYAISWVRQAPGQGLEWMGGITALGGYPNYAQKFQGRVTITADESTSTAYMELSSLRSEDTAVYYCARYGYSLYMDIWGQGTLVTVSSASTKGPSVFPLAPSSKSTSGGTAALGCLVKDYFPEPVTVSWNSGALTSGVHTFPAVLQSSGLYSLSSVVTVPSSSLGTQTYICNVNHKPSNTKVDKKVEPKSCGGGGSGGGGSGGGGSQVQLVQSGAEVKKPGSSVKVSCKASGVDFTKYAIHWVRQAPGQGLEWMGGIVPAEGDANYAQKFQGRVTITADESTSTAYMELSSLRSEDTAVYYCARDVLSAGDGYYLYDLMDVWGQGTLVTVSSASTKGPSVFPLAPSSKSTSGGTAALGCLVKDYFPEPVTVSWNSGALTSGVHTFPAVLQSSGLYSLSSVVTVPSSSLGTQTYICNVNHKPSNTKVDKKVEPKSCDKTHTCPPCPAPEAAGGPSVFLFPPKPKDTLMISRTPEVTCVVVDVSHEDPEVKFNWYVDGVEVHNAKTKPREEQYNSTYRVVSVLTVLHQDWLNGKEYKCKVSNKALAAPIEKTISKAKGQPREPEVATFPPSRDELTKNQVTLVCLVTGFYPSDIAVEWESNGQPENNYKTDPPLLESQGSFALSSRLRVDKSRWQQGNVFSCSVMHEALHNHYTQKSLSLSPG light: EIVMTQSPATLSVSPGERATLSCRASQSVSSNLAWYQQKPGQAPRLLIYGASTRATGIPARFSGSGSGTEFTLTISSLQSEDFAVYYCQQYNNWPWTFGQGTKVEIKRTVAAPSVFIFPPSDEQLKSGTASVVCLLNNFYPREAKVQWKVDNALQSGNSQESVTEQDSKDSTYSLSSTLTLSKADYEKHKVYACEVTHQGLSSPVTKSFNRGEC
